According to the supplement of paper PMC10126150:
Values marked as one replicate rest on one cluster of the flow cell; about a third of the high ones do not repeat.

Test system: ATP
Test: switch fluorescence ratio, 500 uM ATP over buffer (Cy3 cluster intensity, sum of 5 cycles each) (fold (ratio)); higher = stronger signal-on switching upon ATP binding; sequences stand for … in TCGTCGGCAGCGTCAGATGTGTATAAGAGACAGTTTTTTTTTTTTTTTTTTTTTTTTT…TC
Conditions: aptamer strand: ATP DNA aptamer (quencher-CACCTGGGGGAGTATTGCGGAGGAAGG + anchor), 100 nM annealed; ATP concentration: 500 uM; one replicate
Summary of the method: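 Clusters carrying Cy3-labelled switching strands on a modified Illumina MiSeq flow-cell were annealed to 100 nM quencher-labelled ATP aptamer and imaged in selection buffer. They were imaged again after 15 min with 500 uM ATP at 22 °C, over five buffer/ATP cycles with NaOH stripping and re-annealing in between. For each cluster, the fluorescence ratio is the summed Cy3 intensity of the target cycles divided by that of the buffer cycles, averaged per switch-domain sequence. Clusters outside 100-1000 RFU were left out.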
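Also: ATP exposure 15 min at 22 °C before imaging.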

Sequence	switch fluorescence ratio
TCCTGTGGG	0.988
ATTAATCTCT	1.03
ATGACCTGAG	1.02
GGGGAGTTTT	1
CTAGTACATA	1.02
AAGGGGAAG	1.03
GGCGATGTG	1.07
TTGCCCCAGT	1.01
TAAGGTCCGC	1.09
ATCCGGTAAT	1.1
AAATCAATAG	1.08
GGGCGCAGGA	1.03
TATAGAAACT	1.03
GGTCTTGAAG	0.978
TTTCAGAACA	0.985
CCTTTACTTA	1.07
ACTAGCGTTT	0.983
AGAGGGCAGT	1.34
TTCTAGTATC	1
CGGCCTATTA	1.03
ATTTAATGTA	1.06
CACTCCGGGA	2.61

Sequence	switch fluorescence ratio
TGTCAGACCT	1.08
GGCCTAACTT	1.01
CGATAAAAGT	0.975
TAGATCACTG	1.01
TAATTAGAAA	1.04
TTCCTGCTTC	1.84
TATTTCAAAT	0.972
CGACTGGGAT	1.18
CTGATGGTTG	1.02
TTCAAAGAGA	0.97
GGAGATAAGT	1.04
CTAAATGTTC	1.04
CCGTACATTT	1.02
ACACGCACGA	1.62
GGATCGCCAG	0.963
CGGAAATGTT	0.981
TCCACGAAA	1.19
TCTTAGACAG	0.973
TCATGGTTAG	1
ACGTAGGAGC	1.13
GCTGTGCCCT	0.977
CTGTTCGGGG	1.01

Sequence	switch fluorescence ratio
TTTATTGATA	1.02
ACATCCGTTC	1.13
TAGCAAACAG	1.07
TGTGCCCACA	1
AAGGGGAACG	0.975
ATGCGAAACT	1.04
TGGCCTTCGC	1.13
ACAAAATCAA	1.01
AGCAGGTCTT	0.999
GTTCCTGGTC	0.945
ATGCCTATGC	1.02
CGAGCCCAG	2.79
TTTCACGAGT	1.08
GCTGAGTGCG	1.02
GGAATTGCAT	0.972
TACGCTACGG	1.53
GCGGCAATGC	3.31
AGGATTTCAT	1.02
CGTACCTCGT	0.98
TTCTCTTCTG	1.01
GTCTGATTTC	0.995
GGATATACAT	1

Sequence	switch fluorescence ratio
CGGAGACA	1.02
TATTCCTGCT	1.18
GTCTGACCCC	1.13
GTCCTATGGA	0.946
AGCAATTCC	3.43
GGCAGATTTG	0.991
ATAGGTGCGA	1.01
CGAGTGGATC	1.05
CGTACCTTGC	2.49
AGAACTGGT	0.946
AGGGTCGGTT	0.988
GTCAATTTTT	0.996
TACGGGGAC	1.17
CCCTGGTAGA	1.07
AGGGATGTG	0.986
ATACACAGCC	1.13
GGCCGGCTTA	0.996
CTCGGCTCTG	0.984
CAATATCGGA	0.992
